Data published in PubChem BioAssay AID686971 (National Center for Advancing Translational Sciences (NCATS), 2013).
Hit rate of the full screen: of about 360,000 compounds, about 7,500 (2.1%) were called active. Inconclusive means that the source gave no clear call. Such entries were picked first, then a sample of the others. Calls follow the shape of the dose curve; as a rule, active = well fitted cell-killing curve with a large enough effect; inconclusive = small, poorly fitted or top-dose-only effect, or effect the other way, or another doubt; inactive = no such curve, though single readings can be large or run the other way. Potencies of inconclusive entries are left out as doubtful fits.

Assay: qHTS for induction of synthetic lethality in tumor cells producing 2HG: qHTS for the HT-1080-IDH1KD cell line;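 as to activity, negative = toxicity: 0% = DMSO wells and -100% = cell-free medium wells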
Settings: HT-1080 IDH1 knockdown viability, ATP luminescence, 48 h; activity, negative = toxicity: at 46.1 µM (top of the series) unless noted
How it was run: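 IDH1KD HT-1080 cells, 750/well, RPMI + 5% FBS; compound pinned after 2 h settling; 48 h, 37 °C; CellTiter-Glo luminescence; % activity normalised to DMSO and no-cell wells; curves fitted, classed by r2 and efficacy.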
Potency is read from the fitted curve at half-maximal effect; tags tell the direction and shape of the fitted curve.

| Structure (SMILES) | activity, negative = toxicity | Potency |
| --- | --- | --- |
| COc1cc2c(-c3ccc4cc[nH]c4c3)c(-c3ccsc3)oc(=O)c2cc1OC | inactive: 0.968% | – |
| Cc1c(CN2CCC(CO)(CCOc3ccccc3)CC2)[nH]c2c(Cl)cccc12 | – | active: 18.4 µM |
| CCc1ccc2c(c1)NC(=O)C2(C)Cc1ccccc1Cl (configuration not stated) | – | inconclusive [cytotoxic, single point] |
| O=C(COc1ccccc1-c1ccccc1)N/N=C/c1cccc2ccccc12 | – | active: 1.03 µM |
| O=c1c2ccccc2nc(/C=C/c2ccc(Br)cc2)n1CCO | – | inconclusive [cytotoxic, partial curve] |
| O=C1[C@H]2[C@@H](c3ccc(C(F)(F)F)cc3)N[C@]3(CCCN(Cc4ccc(Br)cc4)C3=O)[C@H]2C(=O)N1Cc1ccccc1 | – | inconclusive [cytotoxic, partial curve] |
| COc1ccc(N/C=C/C(=O)C(C)(C)C)cc1 | – | inconclusive [cytotoxic, single point] |
| Cc1cc(C(=O)CN2C(=O)C(=O)N(Cc3ccccc3)C2=O)c(C)n1-c1ccc2c(c1)OCCO2 | – | inconclusive [cytotoxic, partial curve, poor fit] |
| O=C(Nc1ccc(Cl)cc1)c1ccc2sc([C@@H]3O[C@H](CO)[C@@H](O)[C@H]3O)nc2c1 | – | inconclusive [cytotoxic, single point] |
| CN1C(=O)/C(=C\c2ccncc2)SC1=Nc1ccccc1 | inconclusive: -37.9% [cytotoxic] | – |
| Cc1nnc(NC(=O)c2cccc(S(=O)(=O)N3CCCC3)c2)s1 | inactive: 9.2% | – |
| CC(C)n1nc(C(=O)OCC(=O)c2c[nH]c3ccccc23)c2ccccc2c1=O | – | inconclusive [cytotoxic, single point] |
| COc1ccc(NC(=O)/C(Cl)=C(/Cl)S(=O)Cc2ccccc2)cn1 (configuration not stated) | – | active: 1.46 µM |
| C/C(=N\NC(=O)c1c(C)nc2ccccn12)c1ccc(N2CCOCC2)cc1 | inactive: 1.09% | – |
| COc1cc(NC(=O)Nc2nc(C(N)C(C)C)cs2)cc(OC)c1OC (configuration not stated) | – | inconclusive [cytotoxic, single point] |
| CC(=O)/C(C#N)=C1\NC(=O)C(Cc2ccccc2C)S1 (configuration not stated) | – | inconclusive [cytotoxic, partial curve] |
| O=c1cc(O)c2ccccc2n1Cc1ccccc1F | inconclusive: -15.8% [cytotoxic] | – |
| O=C(CCN1CCN(c2ccccc2)CC1)Nc1ccc(Cl)cc1 | inactive: -22.9% | – |
| Cc1ccc(-n2cc(-c3ccccc3)c3c(N4CCOCC4)ncnc32)cc1 | – | inconclusive [cytotoxic, partial curve] |
| CC(=O)Oc1ccc(C(=O)Nc2cccc(C(=O)c3ccc(C)c(C)c3)c2)cc1 | – | inconclusive [cytotoxic, single point] |
| NS(=O)(=O)c1ccc(CNC(=S)Nc2ccc(Cl)c(Cl)c2)cc1 | inactive: -29.2% | – |
| COc1ccccc1NC(=S)NC(=O)C(C)C | – | inconclusive [cytotoxic, single point] |
| c1ccc(CCn2c3ccccc3c3nnc(SCc4ccc5nonc5c4)nc32)cc1 | – | active: 7.08 µM |
| COc1cc(/C=C/C(=O)OCC(=O)N2c3ccccc3NC(=O)C2(C)C)cc(OC)c1OC | – | inconclusive [cytotoxic, single point] |

| Structure (SMILES) | activity, negative = toxicity | Potency |
| --- | --- | --- |
| O=C1CSc2ccc(S(=O)(=O)N3CCN(c4ccccc4F)CC3)cc2N1 | – | inconclusive [cytotoxic, single point] |
| O=C(NC(c1ccccc1)c1ccc2ccccc2n1)C1CCN(CCOc2ccc(Cl)cc2Cl)CC1 (configuration not stated) | – | inconclusive [cytotoxic, single point] |
| COC(=O)c1ccc2nc(-c3ccc(OC)c(OC)c3)c(Cc3ccccc3)n2c1 | – | inconclusive [cytotoxic, single point] |
| CC(C)CN(C(=O)CCC(=O)OCC(=O)NCCc1ccccc1)c1c(N)n(CC(C)C)c(=O)[nH]c1=O | inactive: -12.7% | – |
| COc1ccc(NC(=O)c2cc(-c3cc(C)cc(C)c3O)n[nH]2)cc1Cl | – | inconclusive [cytotoxic, single point] |
| COc1ccc(C(CCNC(C)c2ccccc2)C(C)C)cc1 (configuration not stated) | – | inconclusive [cytotoxic, single point] |
| CCOC(=O)c1cnc(-c2ccc(C(F)(F)F)cn2)[nH]c1=O | inactive: 7.09% | – |
| Cc1ccc(C)c(NC(=O)Cn2nnc(C(=O)NCc3ccco3)c2N)c1 | – | inconclusive [cytotoxic, single point] |
| Oc1nc(Nc2cccc(Cl)c2)sc1/C=C1\C=Nc2ccccc21 | – | inconclusive [cytotoxic, single point] |
| CC(C)C(C(=O)NCc1ccccc1)N(C)Cc1ccc(Cl)c(Cl)c1 (configuration not stated) | – | inconclusive [cytotoxic, partial curve] |
| CCN(C(=O)CSc1ncnc2sccc12)c1c(N)n(Cc2ccccc2)c(=O)[nH]c1=O | – | inconclusive [rising, single point] |
| COc1ccc(C2C(C(C)=O)=C(O)C(=O)N2CCc2c[nH]c3ccccc23)cc1 (configuration not stated) | – | inconclusive [cytotoxic, partial curve] |
| O=C(C#Cc1ccccc1)c1ccco1 | – | active: 6.51 µM |
| O=C(Cc1cccc2ccccc12)Nc1nc2ccccc2[nH]1 | – | active: 12.6 µM |
| CCc1nc2ccc(C(=O)N(C)Cc3ccccc3)cn2c1N(CC)Cc1cccc(Br)c1 | – | inconclusive [cytotoxic, single point] |
| CC(NC(=O)COC(=O)c1cc(NS(=O)(=O)c2ccc(Cl)c([N+](=O)[O-])c2)ccc1O)C1CC2CCC1C2 (configuration not stated) | – | inconclusive [cytotoxic, partial curve] |
| CC1=NN(C)C(=O)C1Cc1c(F)cccc1Cl (configuration not stated) | inactive: -0.0632% | – |
| COc1ccccc1CNC(=O)Nc1nc(C(N)Cc2ccc(Cl)cc2)cs1 (configuration not stated) | – | active: 20.6 µM |
| S=c1[nH]nc(-c2cccs2)n1/N=C/c1cn(-c2ccccc2)nc1-c1ccccc1 | – | inconclusive [cytotoxic, single point] |
| CCN1CCN(c2ccc(S(=O)(=O)N3CCCCC3)cc2NC(=O)c2cccc(C(F)(F)F)c2)CC1 | inactive: 1.83% | – |
| CCN1CCN(CCCNC(=O)c2ccc3c(c2)N(Cc2ccc(C)cc2)CCS3)CC1 | – | inconclusive [cytotoxic, single point] |
| COC(=O)[C@@H]1Cc2c([nH]c3ccccc23)C(C)(C)N1C(=O)CCl | – | active: 18.4 µM |
| COc1ccc(Cl)cc1-c1cc(C(=O)NCc2cccs2)[nH]n1 | inactive: -27.9% | – |
| CC(C)c1ccc(NC(=O)CCc2ccccc2)cc1 | – | active: 5.8 µM |

| Structure (SMILES) | activity, negative = toxicity | Potency |
| --- | --- | --- |
| Cn1cc(/C=N/Nc2ccccc2)c2ccccc21 | – | inconclusive [cytotoxic, partial curve] |
| COc1ccc(OCc2cc(C(=O)NCCc3ccccc3)no2)c(Cl)c1 | – | active: 16.4 µM |
| O=C(NNC(=O)C1CCN(S(=O)(=O)c2ccc(Cl)cc2)CC1)c1ccccc1O | – | inconclusive [cytotoxic, partial curve, poor fit] |
| CCOc1ccc(C(=O)Nc2cccc3nsnc23)cc1[N+](=O)[O-] | – | inconclusive [rising, single point] |
| CN1C(=O)c2ccccc2Sc2ccc(NC(=O)N3CCOCC3)cc21 | inactive: -8.83% | – |
| COc1cccc(NC(=O)Cn2cnc3c(oc4nc5c(cc43)CCCC5)c2=O)c1 | inactive: 5.35% | – |
| OCCNCc1cccc(OCc2ccc(Cl)cc2)c1 | – | inconclusive [cytotoxic, partial curve] |
| CCCn1c(N2CCC(Cc3ccccc3)CC2)nc2c1c(=O)[nH]c(=O)n2C | – | inconclusive [cytotoxic, single point] |
| CS(=O)(=O)c1[nH]nc(-c2ccccc2Cl)c1C#N | inactive: 4.83% | – |
| CCC(=O)N1CCc2cc(S(=O)(=O)CCC(=O)NCc3ccco3)ccc21 | – | inconclusive [cytotoxic, full curve, poor fit] |
| CC(C)C(OC(=O)c1nsc(Cl)c1Cl)C(=O)NCc1ccccc1 (configuration not stated) | inactive: 19.7% | – |
| CN(C)c1nc(N)nc(CSc2nnnn2-c2ccc(Cl)cc2)n1 | – | active: 23.1 µM |
| CCCOc1cc(C)c(Cl)cc1S(=O)(=O)N(CC)CC | inactive: 0.358% | – |
| COc1ccccc1N=C1SC(C(=O)Nc2cccc(Cl)c2Cl)C(N)=C1C(N)=O (configuration not stated) | – | inconclusive [cytotoxic, single point] |
| CCOC(=O)c1ccccc1NC(=O)CN1C(=O)NC(C)(CCc2ccccc2)C1=O (configuration not stated) | inconclusive: -34% [cytotoxic] | – |
| Cc1ccc(S(=O)(=O)N[C@@H](Cc2ccccc2)C(=O)CCl)cc1 | – | active: 16.4 µM |
| CC(C)c1nc(SCC(=O)Nc2nccs2)c2ccccc2n1 | inactive: -2.7% | – |
| O=C1c2ccccc2NC(c2ccc(-c3cccc(Cl)c3)o2)N1O (configuration not stated) | – | active: 20 µM |
| Cc1ncc([N+](=O)[O-])n1CCOC(=O)c1ccc(Cl)cc1Cl | inactive: -0.729% | – |
| CCC(C)NC(=O)CCSCCC(=O)NC(C)CC (configuration not stated) | inactive: 13% | – |
| O=C(/C=C/NNC(=O)c1ccc(Cl)cc1)c1ccccc1 | – | inconclusive [cytotoxic, single point] |
| Cc1cccc(NC(=S)NCCc2c[nH]c3ccccc23)c1 | inactive: -19.7% | – |
| O=C(Nc1nnc([C@H]2C[C@H](O)[C@@H](CO)O2)s1)c1cccc(Cl)c1 | – | inconclusive [rising, single point] |
| COc1ccc(NC(=O)c2csc(Cc3ccccc3)n2)cc1 | – | inconclusive [cytotoxic, single point] |
